Data: the supplement of paper PMC9334596
Several values for one entry are separate records, joined by “and”; a condition that tells them apart may be missing. Equal values may be shown once. Whole data set: some 5,300 compounds, median “PER2::LUC luminescence relative to vehicle control” near 0.96, cut for the highest 2% near 1.3. The list shows a part of the results.

Tested on: mPer2Luc MEF
Assay: PER2::LUC luminescence relative to vehicle control (fold of vehicle); higher = higher PER2::LUC reporter signal
Settings: 10 µM
In short: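 Each value gives PER2::LUC luminescence as fold of vehicle control, measured with the ONE-Glo luciferase assay system in mouse embryonic fibroblasts carrying the mPer2Luc reporter. Cells grown in DMEM with 10% FBS at 37 °C and 5% CO2 were seeded at ~3000 per well in 384-well plates. Library compounds were added at 10 μM 48 h later, and readings were taken 24 h and 30 h after treatment.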

| SMILES | PER2::LUC luminescence (time after treatment 24 h) | PER2::LUC luminescence (time after treatment 30 h) |
| --- | --- | --- |
| CN1CCN(C2=Nc3ccccc3Oc3ccc(Cl)cc32)CC1 | 0.954 and 0.682 | 0.911 and 1.04 |
| N=C(NCCCCCCNC(=N)NC(=N)Nc1ccc(Cl)cc1)NC(=N)Nc1ccc(Cl)cc1 | 0.586 and 0.382 and 0.326 | 0.624 and 0.34 and 0.35 |
| NCc1ccccc1CC(=O)N[C@@H]1C(=O)N2C(C(=O)O)=C(CSc3nnnn3CC(=O)O)CS[C@H]12 | 0.958 | 0.913 |
| COc1ccc2c(OCc3nnc4ccc(-c5ccccc5)nn34)ccnc2c1 | 1.01 | 0.888 |
| COc1c2occc2cc2ccc(=O)oc12 | 1 and 0.872 and 0.582 | 1.06 and 0.888 and 0.73 |
| CC(C)c1ccc(C(=O)N=C(N)N)cc1S(C)(=O)=O | 1.02 | 0.943 |
| Oc1ccc2ccccc2c1 | 1.07 and 1.1 | 1.03 and 1.09 |
| CCOC(=O)[C@@H](N)Cc1ccc(-c2cc(O[C@H](c3ccc(Cl)cc3-n3ccc(C)n3)C(F)(F)F)nc(N)n2)cc1 | 0.925 | 1.06 |
| Cc1cc2sc(NC(=O)Cc3ccccc3)nc2cc1Cl | 1.02 | 1.38 |
| COC(=O)c1cc(O)c(=O)c2c(O)c(O)ccc2c1 | 0.836 | 0.924 |
| O=C(Nc1cccc(Cl)c1)c1ccccn1 | 1.65 | 1.48 |
| C[C@@H]1C[C@H]2O[C@@H]2/C=C\C=C\C(=O)Cc2c(Cl)c(O)cc(O)c2C(=O)O1 | 0.116 | 0.177 |
| C[N+]1(C)CCC(OC(=O)C(O)(c2ccccc2)C2CCCC2)C1 (centres undefined) | 1.07 | 1.03 |
| COc1ccc(CNC(=O)c2sc3nc(C)cc(C)c3c2N)cc1 | 0.953 | 0.979 |
| CCCCCCCCCCCCCCCCCCOCC(O)CO (centres undefined) | 0.848 | 0.965 |
| CC(=O)NC[C@H]1CN(c2ccc(-c3ccc(CNCc4cnn[nH]4)cc3)c(F)c2)C(=O)O1 | 1.03 | 1.09 |
| COC1=C[C@@H](C)[C@@H]2C[C@H]3OC(=O)C[C@H]4C(C)=C(OC)C(=O)[C@H]([C@@]2(C)C1=O)[C@@]34C | 0.928 | 0.9 |
| N#Cc1ccc(C(c2ccc(C#N)cc2)n2cncn2)cc1 | 0.794 | 1.11 |
| C[C@@]1(C(=O)Nc2ccc(F)nc2)CCCN1c1nc(Nc2cc(C3CC3)n[nH]2)c2cccn2n1 | 0.365 | 0.387 |
| Clc1ccc(CCC(Cn2ccnc2)Sc2c(Cl)cccc2Cl)cc1 (centres undefined) | 1.09 | 1.22 and 1.09 |
| CCCCCc1c2c(cc(O)c1C(=O)O)OC(=O)c1c(cc(OC)cc1C(=O)CCCC)O2 | 0.957 | 0.919 |
| CN(C)C(=O)Nc1cccc(-c2ccc(N(C)C)cc2)c1 | 1.15 | 1.15 |

| SMILES | PER2::LUC luminescence (time after treatment 24 h) | PER2::LUC luminescence (time after treatment 30 h) |
| --- | --- | --- |
| N[C@H](C(=O)O)c1ccc(O)c(C(=O)O)c1 | 1.02 | 0.987 |
| COc1ccc([C@@H]2CC(=O)c3c(O)cc(O)cc3O2)cc1O | 1.03 and 1.23 | 1.09 and 1.32 |
| CCOC(=O)c1cc(C#N)c(N2CCC(C(=O)NS(=O)(=O)Cc3ccccc3)CC2)nc1C | 1.17 | 1.07 |
| CN(C)CCCN1c2ccccc2Sc2ccc(C(F)(F)F)cc21 | 0.395 | 0.483 |
| O=Cc1c2[nH]c3ccccc3c2cc2[nH]c3ccccc3c12 | 1.54 | 1.5 |
| CC(=O)Oc1ccccc1C(=O)Nc1ncc([N+](=O)[O-])s1 | 0.826 | 1.16 |
| COc1cc(C(=O)O[C@H]2C[C@@H]3CC[C@]2(C)C3(C)C)ccc1O | 1.15 | 1.19 |
| Oc1cc(O)c2c(c1)O[C@H](c1ccc(O)c(O)c1)[C@@H](O)C2 | 1.12 | 0.775 |
| O=C(NN=Cc1ccc(O)c(O)c1)c1cc2ccccc2cc1O | 1.22 | 1.3 |
| C[N+]1(C)CCC(OC(=O)C(c2ccccc2)c2ccccc2)CC1 | 1.15 and 0.92 | 1.24 and 0.978 |
| NC(=O)c1ccc(N(C(N)=O)c2c(F)cccc2F)nc1-c1ccc(F)cc1F | 0.823 | 0.925 |
| CC1(C)OC(=O)C(OCC2CC2)=C1c1ccc(S(C)(=O)=O)cc1 | 0.969 | 0.862 |
| CC(N/C(=N\C#N)Nc1ccncc1)C(C)(C)C (centres undefined) | 1.03 and 1 | 1.09 and 0.951 |
| CCCCC(O)c1ccccc1 (centres undefined) | 0.988 | 1.01 |
| CCCc1cc(C)[nH]c(=O)c1CNC(=O)c1cc(-c2ccc(N3CCN(C(C)C)CC3)nc2)cc2c1cnn2C(C)C | 0.482 | 0.579 |
| O=c1cc(-c2ccccc2)oc2c(O)c(O)ccc12 | 0.582 | 0.632 |
| CCCCOCCOCCOCc1cc2c(cc1CCC)OCO2 | 1 | 0.843 |
| CCN(CC)CCOC(=O)C1(C2CCCCC2)CCCCC1 | 0.758 | 0.811 |
| O=C1O[C@H]([C@@H](O)CO)C(O)=C1OP(=O)(O)O | 0.979 | 0.992 |
| O=C1c2c(O)cccc2Cc2cccc(O)c21 | 1.01 | 1.07 |
| CN[C@@H](C)C(=O)N[C@H](C(=O)N1CCC[C@H]1c1nc(C(=O)c2ccc(F)cc2)cs1)C1CCCCC1 | 0.878 | 0.789 |
| COc1cc([C@@H]2CC(=O)c3c(O)cc(O)cc3O2)ccc1O | 0.985 | 0.942 |

| SMILES | PER2::LUC luminescence (time after treatment 24 h) | PER2::LUC luminescence (time after treatment 30 h) |
| --- | --- | --- |
| COc1c(C)c(C(=O)c2ccc(N)c(C(=O)O)c2)n2ccccc12 | 1.05 | 1.09 |
| O=S(=O)(O)c1cc(N=C=S)ccc1/C=C/c1ccc(N=C=S)cc1S(=O)(=O)O | 0.832 | 0.684 |
| CO[C@H]1C[C@H](O[C@H]2[C@H](C)O[C@@H](O[C@@H]3/C(C)=C/C[C@@H]4C[C@@H](C[C@]5(C=C[C@H](C)[C@@H](C6CCCCC6)O5)O4)OC(=O)[C@@H]4C=C(C)[C@@H](O)[C@H]5OC/C(=C\C=C\[C@@H]3C)[C@]54O)C[C@@H]2OC)O[C@@H](C)[C@@H]1O | 0.999 | 0.904 |
| C#CC(N)CCC(=O)O (centres undefined) | 0.982 | 1.04 |
| COc1cc(C(=O)OCCCN2CCCN(CCCOC(=O)c3cc(OC)c(OC)c(OC)c3)CC2)cc(OC)c1OC | 0.605 and 0.307 | 0.587 and 0.498 |
| O=C1C[C@@H](c2ccccc2)Oc2cc(O)cc(O)c21 | 1.07 | 1.08 |
| COc1ccc2c(c1)CCC1C2CCC2(C)C(NCCCCCCN3C(=O)C=CC3=O)CCC12 (centres undefined) | 1.06 | 1.01 |
| CC[N+](C)(CC)CCOC(=O)C(O)(c1ccccc1)C1CCCCC1 (centres undefined) | 0.931 | 0.87 |
| N=C(NC(=O)c1nc(Cl)c(N)nc1N)Nc1ccccc1 | 1.32 | 1.39 |
| COc1cc2ncnc(Sc3nnc(C)s3)c2cc1OC | 1.12 | 0.661 |
| OCCN1CCN(CC/C=C2/c3ccccc3Sc3ccc(C(F)(F)F)cc32)CC1 | 0.753 and 0.554 | 0.668 and 0.59 |
| O=C1NC(=O)C(c2cnc3ccccn23)=C1c1cn2c3c(cc(F)cc13)CN(C(=O)N1CCCCC1)CC2 | 0.731 | 0.355 |
| N[C@@]1(C(=O)O)C[C@@H](C(=O)O)CC1C(=O)O (some centres undefined) | 0.971 | 0.877 |
| OC(Cn1cncn1)(Cn1cncn1)c1ccc(F)cc1F | 0.841 | 0.971 |
| CCCOc1cc(N)ccc1C(=O)OCCN(CC)CC | 1.09 | 0.915 |
| Cc1ccc(-c2csc3ncnc(SCCC(=O)O)c23)cc1 | 1.1 | 1.19 |
| NCCc1c[nH]cn1 | 0.832 and 0.572 | 0.983 and 0.838 |
| CC[N+](C)(C)c1cccc(O)c1 | 0.917 | 0.884 |
| O.O.O=C([O-])CN(CCN(CC(=O)[O-])CC(=O)O)CC(=O)O.[Na+].[Na+] | 1.08 | 0.991 |
| C[C@@H](NCCCc1cccc(C(F)(F)F)c1)c1cccc2ccccc12 | 0.849 and 0.905 and 0.872 | 0.943 and 0.875 and 0.906 |
| CC(=O)Nc1cccc(-n2c(=O)n(C3CC3)c(=O)c3c(Nc4ccc(I)cc4F)n(C)c(=O)c(C)c32)c1 | 0.142 | 0.118 |
| CC(=O)[C@@]1(O)CC[C@H]2[C@@H]3C=C(Cl)C4=CC(=O)[C@@H]5C[C@@H]5[C@]4(C)[C@H]3CC[C@@]21C | 0.443 | 0.765 |

| SMILES | PER2::LUC luminescence (time after treatment 24 h) | PER2::LUC luminescence (time after treatment 30 h) |
| --- | --- | --- |
| CO[C@@H]1[C@@H](O[C@@H]2O[C@H](C)[C@@H](O[C@H]3C[C@@](C)(O)[C@@H](OC(=O)CC(C)C)[C@H](C)O3)[C@H](N(C)C)[C@H]2O)[C@@H](CC=O)C[C@@H](C)[C@@H](O)/C=C/C=C/C[C@@H](C)OC(=O)C[C@H]1O | 0.929 | 1.07 |
| N=C1CCCN1Cc1[nH]c(=O)[nH]c(=O)c1Cl | 1.01 | 0.974 |
| Nc1[nH]cnc2ncnc1-2 | 0.919 and 1.16 and 1.1 | 0.878 and 1.03 and 1.06 |
| C=CC(N)CCC(=O)O (centres undefined) | 1.08 and 1.03 | 0.992 and 1.01 |
| CCCCCCCCCCCCCCCC(=O)OC/C=C(C)/C=C/C=C(C)/C=C/C1=C(C)CCCC1(C)C | 0.929 and 0.69 | 0.976 and 0.869 |
| COc1ccc2c(C(=S)N(C)CC(=O)O)cccc2c1C(F)(F)F | 1.04 | 1 |
| NS(=O)(=O)c1cc(C2(O)NC(=O)c3ccccc32)ccc1Cl (centres undefined) | 0.992 and 1 | 1.09 and 1 |
| CCN[C@H]1CN(CCCOC)S(=O)(=O)c2sc(S(N)(=O)=O)cc21 | 0.968 | 1.09 |
| CN(C)CCC(c1ccc(Cl)cc1)c1ccccn1 (racemic) | 0.96 | 0.819 |
| CN(C)c1ccc2c(c1)OC(N)=C(C#N)C2c1cccc(C(F)(F)F)c1 (centres undefined) | 1.04 | 1 |
| CC(=O)OCC(=O)[C@@]1(O)CC[C@H]2[C@@H]3CCC4=CC(=O)CC[C@]4(C)[C@H]3[C@@H](O)C[C@@]21C | 0.627 | 0.995 |
| Cc1ncc(C[n+]2csc(CCO)c2C)c(N)n1 | 1.1 and 1.02 | 0.993 and 1.01 |
| CC(C)c1c(C(=O)Nc2ccccc2)c(-c2ccccc2)c(-c2ccc(F)cc2)n1CC[C@@H](O)C[C@@H](O)CC(=O)O | 0.511 | 0.795 |
| CCCCN(CCCC)CCCOC(=O)c1ccc(N)cc1 | 0.966 | 0.832 |
| COC(=O)Nc1nc2cc(C(=O)c3cccs3)ccc2[nH]1 | 0.756 | 0.841 |
| Cc1ccc(C(=O)c2ccc(CC(=O)O)n2C)cc1 | 1.09 and 1.07 | 1.02 and 1.08 |
| O=C(O)CN1C(=O)c2cccc3cccc(c23)C1=O | 1.04 | 1.26 |
| FC(F)(F)C(Cl)Br (centres undefined) | 1.08 and 1.09 | 0.984 and 0.853 |
| CC(=O)OCC(=O)[C@@]1(O)CC[C@H]2[C@@H]3CCC4=CC(=O)C=C[C@]4(C)[C@@]3(Cl)[C@@H](Cl)C[C@@]21C | 0.791 | 1.33 |
| O=C(C(c1ccccc1)c1ccccc1)N1CCN(CC(O)COc2cccc3ncccc23)CC1 (centres undefined) | 1.04 | 0.904 |
| CC(O)CN(CCN(CC(C)O)CC(C)O)CC(C)O (centres undefined) | 0.907 | 0.977 |
